Among all 52,000 compounds or so, about 4,300 (8.3%) were called active. No stated cut-off is given here; in the data, active means survival mostly below about 52% (no sharp cut-off); inactive means mostly above about 56%. Some of the results follow.
The compounds below were run on DeltatarO mutant (assay: S. aureus survival, RN4220 and DeltatarO strains – OD600, teichoic acid synthesis inhibitors, primary screen (AID 463173)). Conditions: S. aureus RN4220 wild type/DeltatarO growth, OD600, 18 h, active compounds read low, screened at 18.75 µg/mL (by protocol).
In the case of `CNC(=O)C1CCC(Cn2c(=O)c3sccc3n(CC(=O)Nc3cc(F)ccc3F)c2=O)CC1` (stereo not given), the survival is reported as inactive: 79%.
For `CCOC(=O)c1cccc(NC(=O)N2CCC(CN3CCCCCC3)CC2)c1`, the survival was inactive: 74%.
For `Cn1c(=O)[nH]c(=O)c2c1nc(N1CCCC1)n2CCO`, the survival was inactive: 85%.
`O=C(Nc1ccc2oc(-c3cccc(Cl)c3Cl)nc2c1)c1cccc(Br)c1` was tested, and the survival was inactive: 73%.
For `O=C(c1cn(CCOc2ccc(Cl)cc2)c2ccccc12)C1CCCCC1`, the survival was active: 14%.
`O=[N+]([O-])c1cc(-c2nc(-c3ccncc3)no2)ccc1NCc1ccccc1` was tested, and the survival was inactive: 109%.
`COc1cn(CC(=O)Nc2cc(C)ccc2C)c(CN2CCCCC2)cc1=O` was tested, and the survival was inactive: 90%.
`Cc1cc(C)cc(Nc2cc(C(=O)NCc3ccccc3)c3ccccc3n2)c1` was tested, and the survival was inactive: 113%.
In the case of `O=C(Nc1ccccc1C(F)(F)F)c1cc2ccccn2n1`, the survival is reported as inactive: 80%.
`Cc1cc(C)c(NC(=O)C(C)n2nnc3sc(-c4ccccc4)cc3c2=O)c(C)c1` (stereo not given) was tested, and the survival was inactive: 101%.
In the case of `CCOC(=O)C1CCN(C(c2ccc(F)cc2)c2sc3nc(-c4ccco4)nn3c2O)CC1` (stereo not given), the survival is reported as inactive: 70%.
`CCOc1cc(CNCCSc2nnnn2-c2ccccc2)ccc1OC` was tested, and the survival was inactive: 60%.
With `CCOC(=O)C1(c2ccccc2)NC(c2ccc(O)c(OC)c2)C2C(=O)N(C)C(=O)C21` (stereo not given) the survival was inactive: 81%.
`CCOc1ccc(C(=O)c2cn(CC(=O)Nc3cc(OC)ccc3OC)c3cc(OC)c(OC)cc3c2=O)cc1` was tested, and the survival was inactive: 70%.
With `CCCn1c2c(c(O)c(C(=O)Nc3ccccc3F)c1=O)CCCC2` the survival was inactive: 93%.
`COc1ccc(-c2ccc(=O)n(CC(=O)NCCc3ccccc3)n2)cc1` was tested, and the survival was inactive: 70%.
In the case of `CCc1ccc(OCCSc2nc(-c3cccc(C)c3)nc3cc(=O)[nH]n23)cc1`, the survival is reported as inactive: 75%.
In the case of `CC(C)(C)C/C(=N/O)c1ccccc1`, the survival is reported as inactive: 89%.
In the case of `COc1ccc(NC(=O)CCSc2nc(-c3ccco3)cc(C(F)(F)F)n2)cc1OC`, the survival is reported as inactive: 50%.
With `O=C(CN1C(=O)C2(SCC(=O)N2c2ccc(F)cc2)c2ccccc21)NCCc1ccccc1` (stereo not given) the survival was inactive: 85%.
For `CC(=O)Nc1ccc(C(=O)CSc2nnc3ccc4ccccc4n23)cc1`, the survival was inactive: 75%.
With `c1ccc2c(c1)nc(N1CCOCC1)c1ccccc12` the survival was inactive: 86%.
For `O=S(=O)(NCc1ccc(Cl)cc1)c1ccc(N2CCCCS2(=O)=O)cc1`, the survival was inactive: 113%.
In the case of `CCOc1ccc(NC(=O)NCCN2CCN(c3ccccc3F)CC2)cc1`, the survival is reported as inactive: 87%.
`CSc1ccc(CCNC(=O)c2cc3c(-c4ccccc4F)nn(C)c3s2)cc1` was tested, and the survival was inactive: 55%.
With `CCOC(=O)c1cccc(NC(=O)c2cc3cc4ccc(C)cc4nc3s2)c1` the survival was inactive: 96%.
For `Nc1c(C(=O)NCc2ccccc2)nnn1Cc1cccc(Br)c1`, the survival was inactive: 67%.
With `CCOC(=O)c1cc(-c2ccc(F)cc2)n(CCC(=O)NC2CCCCC2)c1C` the survival was inactive: 91%.
For `O=C(N1CCCC1)N1c2ccccc2Sc2ccccc21`, the survival was inactive: 111%.
In the case of `Cc1cc(C)cc(Nc2nc3c(S(=O)(=O)c4cccc(Cl)c4)nnn3c3ccsc23)c1`, the survival is reported as inactive: 42%.
With `Cc1nc2nc[nH]n2c(=O)c1NC(=O)CC12CC3CC(CC(C3)C1)C2` the survival was inactive: 101%.
With `O=C(O)c1cccnc1N1CCOCC1` the survival was inactive: 84%.
`Cc1ccc(C)c(NC(=O)CCCN2C(=O)C(c3ccccc3)Oc3cccnc32)c1` (stereo not given) was tested, and the survival was inactive: 85%.
`O=C(CNC(=O)c1ccc(Cl)cc1)OCc1cc(=O)n2nc(C3CCCCC3)sc2n1` was tested, and the survival was inactive: 90%.
With `COC(=O)CN(c1ccccc1)S(=O)(=O)c1ccc(OC)cc1` the survival was inactive: 97%.
In the case of `Nc1c(C(=O)Nc2ccc(Br)cc2)sc2nc(-c3ccncc3)ccc12`, the survival is reported as inactive: 74%.
For `COc1cccc(NC(=O)c2ccc(-c3nc(COc4ccc(C)cc4)c(C)o3)cc2)c1`, the survival was inactive: 83%.
For `Cc1ccc2c(c1)c1c(c(=O)n(-c3ccccc3C)c(=O)n1CC(=O)NCC1CCCO1)n2C` (stereo not given), the survival was inactive: 95%.
In the case of `Cc1cc(=O)n2nc(N3CCC(C(=O)Nc4ccc(Br)cc4F)CC3)sc2n1`, the survival is reported as inactive: 94%.
With `CCCCSCCCNC(=O)C1CCN(Cc2nc(-c3cccc(Br)c3)oc2C)CC1` the survival was inactive: 68%.
For `COc1ccccc1CNC(=O)c1ccc(N2CCCC2)c(NC(=O)NCc2ccc(F)cc2)c1`, the survival was inactive: 112%.
For `CCOC(=O)C1=C(CN(CC)Cc2ccccc2)NC(=O)NC1c1ccc(OC(C)C)cc1` (stereo not given), the survival was inactive: 74%.
With `CCOc1ccc(CCNC(=O)c2[nH]c3cc(OC)ccc3c2Sc2ccccc2)cc1OCC` the survival was inactive: 75%.
For `CC(C)CN(CCCNC(=O)CN1N=C(c2ccccc2)CCC1=O)CC(C)C`, the survival was inactive: 130%.
With `CC(=O)c1cc2c(cc1NC(=O)c1cnn(-c3ccc(C)cc3)c1-n1cccc1)OCO2` the survival was inactive: 72%.
In the case of `COc1ccc(N2CCN(c3ccc(-c4nc(-c5cccc(C)c5)no4)cc3[N+](=O)[O-])CC2)cc1`, the survival is reported as inactive: 75%.
In the case of `O=C(NCCC1=CCCCC1)c1ccc2c(c1)N(Cc1cccc(Cl)c1)C(=O)c1ccccc1S2(=O)=O`, the survival is reported as inactive: 71%.
For `Cc1cc(C)c(NC(=O)CSc2nc(-c3ccc(F)cc3)nc3c2Cc2c(CO)cnc(C)c2O3)c(C)c1`, the survival was inactive: 60%.
In the case of `O=c1c2c([nH]c3ccccc13)CCCCC2`, the survival is reported as inactive: 86%.
For `O=C(O)CCC(=O)CCN1CCCCC1`, the survival was inactive: 64%.
For `Cc1ccccc1CSc1nc2cccnc2n1Cc1ccc(C(=O)NC2CC2)cc1`, the survival was inactive: 79%.
With `CCOc1ccc(Nc2nc(C)c(NC(=O)c3cccc(OC)c3)c(Nc3ccc(OCC)cc3)n2)cc1` the survival was inactive: 112%.
For `CCOC(=O)c1ccccc1NC(=O)CSc1cn(CC(=O)N2CCOCC2)c2ccccc12`, the survival was inactive: 102%.
With `COc1ccc(CNC(=O)C2CCC(CNS(=O)(=O)c3cccs3)CC2)cc1` (stereo not given) the survival was inactive: 71%.
In the case of `Cc1ccc(N2CCN(S(=O)(=O)c3nnc(NC(=O)c4ccc(C(C)C)cc4)s3)CC2)cc1`, the survival is reported as active: 42%.
In the case of `CCOc1ccc(NC(=O)Cn2c(=O)cc(C)c3c(C)nn(-c4cccc(Cl)c4C)c32)cc1`, the survival is reported as inactive: 124%.
For `CCOc1ccc(S(=O)(=O)c2cn(Cc3ccc(OC)cc3)c3ccc(F)cc3c2=O)cc1`, the survival was inactive: 65%.
With `CCOc1ccc(C(=O)N2CCN(CCc3ccccn3)CC2)cc1` the survival was inactive: 59%.
With `Cc1nn(-c2ccc(N3CCCC3)nn2)c(C)c1CCC(=O)NCc1ccc(OC(C)C)cc1` the survival was inactive: 80%.
`Cn1c(=O)[nH]c(=O)c2c1nc1n2CCN1c1ccccc1` was tested, and the survival was inactive: 194%.
In the case of `CC(C)c1ccc(NC(=O)CCNS(=O)(=O)c2ccc3c(c2)CCCC(=O)N3)cc1`, the survival is reported as inactive: 77%.
With `CCOC(=O)CC(NC(=O)CCc1c(C)nc2ncnn2c1C)c1ccc(OC(C)C)cc1` (stereo not given) the survival was inactive: 114%.
With `Cc1ccc(Cl)cc1-n1ncc2c(N3CCC(C)CC3)ncnc21` the survival was inactive: 128%.
With `Cc1ccc(CNC(=O)CN2CCN(Cc3ccc(F)cc3)C2=O)cc1` the survival was inactive: 95%.
With `O=C(NCc1ccccc1)C1CCN(S(=O)(=O)c2ccc3[nH]c(=O)ccc3c2)CC1` the survival was inactive: 70%.
`Cc1cccc(N(C)S(=O)(=O)c2c(C(=O)N3CCCCCC3)c(C)n(C)c2C)c1` was tested, and the survival was inactive: 75%.
For `Cc1cc2nc(-c3cccc(NC(=O)COc4ccc(Cl)c(C)c4)c3)oc2cc1C`, the survival was inactive: 64%.
In the case of `COc1ccccc1-c1cc(NC(=O)COc2ccc(C)c(C)c2)n(-c2ccccc2)n1`, the survival is reported as inactive: 99%.
With `COc1ccccc1NC(=O)C1CCN(S(=O)(=O)c2cn(C)cn2)CC1` the survival was inactive: 69%.
In the case of `COc1ccc(CN(Cc2cccnc2)C(=S)NCc2ccco2)cc1OC`, the survival is reported as inactive: 75%.
With `CCOc1ccc(NC(=O)CN2C(C(=O)OC)=C(c3ccccc3)c3cc(Cl)ccc3S2(=O)=O)cc1` the survival was inactive: 63%.
For `Cc1cc(=O)[nH]c2nnc(SCc3ccc(Cl)cc3)n12`, the survival was inactive: 129%.
With `COC(=O)C1=C(c2ccccc2)c2ccccc2S(=O)(=O)N1CC(=O)Nc1ccc(OC)cc1OC` the survival was inactive: 166%.
With `COc1ccc(C(C)C)cc1S(=O)(=O)N1CC(C)OC(C)C1` (stereo not given) the survival was inactive: 88%.
With `CC1=C(C(=O)Nc2ccc(F)cc2F)C2(CCCCCC2)OC1=O` the survival was inactive: 83%.
`O=C(CSc1nccn1Cc1ccc(Cl)cc1)NCc1ccccc1` was tested, and the survival was inactive: 49%.
For `COc1ccccc1CNC(=O)C(CC(C)C)N1Cc2ccccc2C1=O` (stereo not given), the survival was inactive: 87%.
`CCOC(=O)c1ccc(N2C(=O)c3n[nH]c(-c4ccco4)c3C2c2ccc(F)cc2)cc1` (stereo not given) was tested, and the survival was active: 22%.
In the case of `Cc1cccc(CC(=O)NCCc2csc(-c3ccc(C(F)(F)F)cc3)n2)c1`, the survival is reported as inactive: 101%.
With `Cc1ccc(C)c(C(=O)COC(=O)CCCC(=O)Nc2cc(C(F)(F)F)ccc2Cl)c1` the survival was active: 25%.
`CCOc1ccc(CCNC(=O)c2cnc3sc(N4CCCCCC4)nn3c2=O)cc1` was tested, and the survival was inactive: 94%.
With `COc1ccc(OC)c(NC(=O)CN2CCCN(Cc3cc(C)ccc3C)S2(=O)=O)c1` the survival was inactive: 89%.
With `CC(C)OCc1cc(CN2CCN(c3ccccc3)CC2)c(O)c2ncccc12` the survival was inactive: 71%.
For `O=C(Cn1ncc2c(Cl)cccc21)NCc1cccc(Br)c1`, the survival was inactive: 116%.
For `Cc1ccc(Cn2c(CCCNC(=O)C3CCCCC3)nc3ccccc32)cc1`, the survival was inactive: 97%.
`CC(C)CCNC(=O)c1ccc2c(c1)N(Cc1ccccc1F)C(=O)c1ccccc1S2=O` (stereo not given) was tested, and the survival was inactive: 84%.
With `COc1ccccc1OCC(=O)NCC1(N(C)C)CCCCC1` the survival was inactive: 91%.
In the case of `COc1ccc(C(=O)NCCSc2ccccn2)cc1`, the survival is reported as inactive: 78%.
For `Cc1ccc(N2CC(NC(=O)C(=O)c3c[nH]c4ccccc34)CC2=O)cc1` (stereo not given), the survival was inactive: 102%.
`Cc1oc(C(=O)O)cc1CSCc1cc(C(=O)O)oc1C` was tested, and the survival was inactive: 80%.
